From paper PMC5700166 come the findings set out here.

The list shows a part of the results, in another mix than the full data. The list includes weakly bound sequences.

This test has as its target T1, GST-Aq-NF-kB (UniProt A9Y5G7).
T1 sequence: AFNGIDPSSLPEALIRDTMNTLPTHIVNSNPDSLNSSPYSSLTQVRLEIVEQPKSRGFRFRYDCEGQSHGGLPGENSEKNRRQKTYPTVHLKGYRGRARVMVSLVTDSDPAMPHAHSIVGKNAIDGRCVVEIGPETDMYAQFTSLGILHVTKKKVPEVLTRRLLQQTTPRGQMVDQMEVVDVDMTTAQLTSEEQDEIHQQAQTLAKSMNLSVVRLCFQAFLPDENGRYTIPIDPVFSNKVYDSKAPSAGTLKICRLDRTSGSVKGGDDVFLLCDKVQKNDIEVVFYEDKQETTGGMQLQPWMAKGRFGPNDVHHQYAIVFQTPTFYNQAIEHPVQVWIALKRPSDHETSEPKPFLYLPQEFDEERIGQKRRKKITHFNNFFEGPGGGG
Kind of test: protein-binding microarray (PBM). The settings on record: PBM: ~300 nM protein, 6 mM HEPES pH 7.8, 80 mM KCl, 0.5 mM EDTA, 0.5 mM EGTA, 6% glycerol, 35 ng/ul poly-dIdC, 1% milk, 1 h, room temperature; Ap Aiptasia and Nv Nematostella (sea anemones) / Co Capsaspora / Aq Amphimedon (sponge) / Dm Drosophila / Hu human; RHD is the Rel homology domain; high values mean tight binding; most listed sequences are background and not binding sites; double strand, one strand shown.
“CCGATTAACATCAAAATTTACCATGATGTTAATCGGGTCTTGATTCGCTTGACGCTGCTG” came in with a binding signal of 1.07 z-score.
The same measure for “CCGATTAACATCAAGGCAATTCCTGATGTTAATCGGGTCTTGATTCGCTTGACGCTGCTG”: 0.552 z-score; for “CCGATTAACATCAGAAATTCCCCTGATGTTAATCGGGTCTTGATTCGCTTGACGCTGCTG”: 8.89 z-score; for “CCGATTAACATCACGTGTTTTCCTGATGTTAATCGGGTCTTGATTCGCTTGACGCTGCTG”: 0.835 z-score.
The same measure for “CCGATTAACATCACTGGAATTCCTGATGTTAATCGGGTCTTGATTCGCTTGACGCTGCTG”: 1.7 z-score; for “CCGATTAACATCAGTACATTCCATGATGTTAATCGGGTCTTGATTCGCTTGACGCTGCTG”: -0.0371 z-score.
The same measure for “CCGATTAACATCAGGAATATACATGATGTTAATCGGGTCTTGATTCGCTTGACGCTGCTG”: -0.254 z-score; for “CCGATTAACATCAGGGAGTACCCTGATGTTAATCGGGTCTTGATTCGCTTGACGCTGCTG”: 6.66 z-score.
For the sequence “CCGATTAACATCAGGAATTACACTGATGTTAATCGGGTCTTGATTCGCTTGACGCTGCTG”, the binding signal came out at 0.194 z-score.
Under “CCGATTAACATCAGAAAAATTCCTGATGTTAATCGGGTCTTGATTCGCTTGACGCTGCTG” stands 2.21 z-score; under “CCGATTAACATCAGGAAGGCCCCTGATGTTAATCGGGTCTTGATTCGCTTGACGCTGCTG”, 5.3 z-score; under “CCGATTAACATCAGTAGTTTCCATGATGTTAATCGGGTCTTGATTCGCTTGACGCTGCTG”, 0.679 z-score.
